Measurements from the supplement of paper PMC9135407.
Where “and” joins values, the source holds several entries; their conditions need not be identical. Identical values can stand only once. Counter-ions that a name gives are not always drawn. Hit rate of the full screen: of about 5,800 compounds, about 620 (11%) showed activity.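 Rule for the calls: active = score above a cut-off or among the top three wells of a plate; in these data no inactive exceeds 0.85.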 The entries are a selection whose mix differs from that of the whole data set.

Tested on: primary human hepatic stellate cells (donor 1)
Experiment: scaled lipid accumulation score (0 = DMSO-like, 1 = nortriptyline-like); higher = stronger HSC inactivation (lipid re-accumulation), active = hit call of the paper
Settings: 48 h
[1] = library stock concentration: 3.33 mM
[2] = library stock concentration: 10 mM
[3] = library stock concentration: 80 uM
[4] = library stock concentration: 400 uM
[5] = library stock concentration: 2 mM
[6] = library stock concentration: 1 mM

C[C@H](Cc1cc2c(c(C(N)=O)c1)N(CCCO)CC2)NCCOc1ccccc1OCC(F)(F)F [Silodosin]
scaled lipid accumulation score [1]: inactive: ≤ 0 | scaled lipid accumulation score [2]: inactive: ≤ 0

Cc1onc(-c2c(F)cccc2Cl)c1C(=O)N[C@@H]1C(=O)N2[C@@H]1SC(C)(C)[C@@H]2C(=O)O [Flucloxacillin sodium]
scaled lipid accumulation score: inactive: ≤ 0

C/C(=C\C(=O)Nc1ccccc1C(=O)O)c1ccc2ccccc2c1
scaled lipid accumulation score [1]: inactive: 0.029 | scaled lipid accumulation score [2]: inactive: ≤ 0

O=C(c1ccc(/C=C/c2n[nH]c3ccccc23)cc1)N1CCNCC1
scaled lipid accumulation score [3]: inactive: ≤ -0.016 | scaled lipid accumulation score [4]: inactive: ≤ -0.016 | scaled lipid accumulation score [5]: inactive: ≤ -0.016 | scaled lipid accumulation score [1]: inactive: 0.101 | scaled lipid accumulation score [2]: inactive: 0.67

Cc1ccc(-n2sc(=O)n(Cc3ccc(F)cc3)c2=O)cc1
scaled lipid accumulation score [1]: inactive: 0.21 | scaled lipid accumulation score [2]: inactive: 0.724

O=C(NCCN1CCOCC1)c1ccc(Cl)cc1 [Moclobemide]
scaled lipid accumulation score: inactive: 0.059 | scaled lipid accumulation score [2]: inactive: 0.047

O=C(NCCN1CCOCC1)c1ccc(Cl)cc1
scaled lipid accumulation score [1]: inactive: ≤ 0 | scaled lipid accumulation score [2]: inactive: ≤ 0

O=C(NCCN1CCOCC1)c1ccc(Cl)cc1 [4-Chloro-N-(2-morpholin-4-yl-ethyl)-benzamide]
scaled lipid accumulation score [2]: inactive: ≤ 0

Cc1cc(Cl)ccc1OCCCC(=O)NO [Droxinostat]
scaled lipid accumulation score [1]: inactive: ≤ 0 | scaled lipid accumulation score [2]: inactive: ≤ 0 and inactive: 0.26

O=C1OC(O)C(c2cc3ccccc3s2)=C1Br (configuration not stated)
scaled lipid accumulation score [6]: inactive: 0.04

O=C(O)c1ccc(S(=O)(=O)N(Cl)Cl)cc1 [Halazone]
scaled lipid accumulation score [2]: inactive: ≤ 0

O=C(Oc1ccccc1C(=O)O)c1ccccc1O [Salsalate]
scaled lipid accumulation score (library stock concentration: 7.7 mM): inactive: ≤ -0.001

O=C(Oc1ccccc1C(=O)O)c1ccccc1O [Sasapyrine]
scaled lipid accumulation score [1]: inactive: ≤ 0 | scaled lipid accumulation score [2]: inactive: ≤ -0.001

COc1c(C)c2c(c(O)c1C/C=C(\C)CCC(=O)O)C(=O)OC2 [Mycophenolic acid]
scaled lipid accumulation score: inactive: ≤ 0 | scaled lipid accumulation score [1]: inactive: ≤ 0 | scaled lipid accumulation score (library stock concentration: 6.2 mM): inactive: ≤ -0.006 and inactive: ≤ 0 | scaled lipid accumulation score [2]: inactive: ≤ 0 and inactive: 0.017 | scaled lipid accumulation score (library stock concentration: 15.6 mM): inactive: ≤ -0.012

NS(=O)(=O)c1cc(Cl)c(Cl)c(S(N)(=O)=O)c1 [Dichlorphenamide]
scaled lipid accumulation score: inactive: ≤ 0 | scaled lipid accumulation score [1]: inactive: 0.061 | scaled lipid accumulation score [2]: inactive: ≤ 0

CCOC(=O)C1=C(N)Oc2ccc(Br)cc2[C@H]1[C@H](C#N)C(=O)OCC
scaled lipid accumulation score [2]: active: 1.15

CS(=O)(=O)c1ccc(-c2cnc(N)c(C(=O)Nc3ccccc3)n2)cc1
scaled lipid accumulation score [3]: inactive: 0.017 | scaled lipid accumulation score [4]: inactive: ≤ 0 | scaled lipid accumulation score [5]: inactive: ≤ 0 | scaled lipid accumulation score [1]: inactive: 0.225 | scaled lipid accumulation score [2]: inactive: 0.489

CCCCCNC(=N)N/N=C/c1c[nH]c2ccc(OC)cc12 [Tegaserod maleate]
scaled lipid accumulation score [2]: inactive: ≤ -0.027

CCCCCNC(=N)N/N=C/c1c[nH]c2ccc(OC)cc12 [Tegaserod]
scaled lipid accumulation score [2]: inactive: ≤ -0.027

CCCCCNC(=N)N/N=C/c1c[nH]c2ccc(OC)cc12
scaled lipid accumulation score [2]: inactive: 0.13

CCCCC/C=C\C/C=C\CC/C=C\CCCC(=O)OCC [Pinolenic Acid ethyl ester]
scaled lipid accumulation score [6]: inactive: ≤ 0

CCN1CCCC(OC(=O)C(c2ccccc2)c2ccccc2)C1 (configuration not stated) [Piperidolate hydrochloride]
scaled lipid accumulation score: inactive: 0.181 | scaled lipid accumulation score [2]: inactive: 0.175

O=C(O)C1=CO[C@@H](O[C@@H]2O[C@H](CO)[C@@H](O)[C@H](O)[C@H]2O)[C@@H]2C(CO)=CC[C@H]12 [Geniposidic acid]
scaled lipid accumulation score [1]: inactive: 0.014 | scaled lipid accumulation score [2]: inactive: 0.021

Nc1ccc(C(=O)O)cc1 [Potassium p-aminobenzoate]
scaled lipid accumulation score [2]: inactive: ≤ 0

Clc1ccc(C(c2ccc(Cl)cc2)[n+]2ccn(CC(OCc3ccc(Cl)cc3Cl)c3ccc(Cl)cc3Cl)c2)cc1 (configuration not stated) [Calmidazolium chloride]
scaled lipid accumulation score [2]: inactive: 0.037

CC(=O)N(OCc1ccccc1)[C@H]1c2cc(C#N)ccc2OC(C)(C)[C@H]1O
scaled lipid accumulation score [2]: inactive: ≤ 0

C[C@H]1O[C@@H](n2cc(F)c(=O)[nH]c2=O)[C@H](O)[C@@H]1O [5-fluoro-5'-deoxyuridine]
scaled lipid accumulation score [2]: inactive: ≤ -0.07

C[C@H]1O[C@@H](n2cc(F)c(=O)[nH]c2=O)[C@H](O)[C@@H]1O [Doxifluridine]
scaled lipid accumulation score [1]: inactive: ≤ 0 | scaled lipid accumulation score (library stock concentration: 8.1 mM): inactive: 0.021 | scaled lipid accumulation score [2]: inactive: ≤ 0

CC(C)(C)c1nc(-c2cccc(NS(=O)(=O)c3c(F)cccc3F)c2F)c(-c2ccnc(N)n2)s1
scaled lipid accumulation score [1]: inactive: ≤ 0 | scaled lipid accumulation score [2]: inactive: ≤ 0

CC(C)(C)c1nc(-c2cccc(NS(=O)(=O)c3c(F)cccc3F)c2F)c(-c2ccnc(N)n2)s1 [Dabrafenib]
scaled lipid accumulation score [3]: inactive: ≤ -0.016 | scaled lipid accumulation score [4]: inactive: ≤ -0.016 | scaled lipid accumulation score [5]: inactive: ≤ -0.016 | scaled lipid accumulation score [2]: inactive: 0.02

N[C@@H](Cc1cc(CP(=O)(O)O)cc(-c2ccccc2Cl)c1)C(=O)O
scaled lipid accumulation score [2]: inactive: ≤ -0.006

Cc1c(C(=O)Nc2ccc(N3CCC(N4CCOCC4)CC3)c(C#N)c2)cnn1-c1ccc(Cl)cc1
scaled lipid accumulation score [1]: inactive: 0.756 | scaled lipid accumulation score [2]: inactive: 0.699

OCC1OC(n2cnc3c(NC4CCCC4)nc(Cl)nc32)C(O)C1O (configuration not stated) [2-Chloro-N6-cyclopentyladenosine]
scaled lipid accumulation score [2]: inactive: 0.043

O=c1c(-c2ccc(O)cc2)coc2cc(O)ccc12 [Daidzein]
scaled lipid accumulation score [6]: inactive: ≤ 0 | scaled lipid accumulation score [1]: inactive: ≤ 0

CNCCCC12CCC(c3ccccc31)c1ccccc12.Cl [Maprotiline HCl]
scaled lipid accumulation score [2]: active: 1.31

CC1(C)CC[C@]2(C(=O)O)CC[C@]3(C)C(=CC[C@@H]4[C@@]5(C)CC[C@H](O)C(C)(C)[C@@H]5CC[C@]43C)[C@@H]2C1 [Oleanolic Acid]
scaled lipid accumulation score [1]: inactive: ≤ 0 | scaled lipid accumulation score [2]: inactive: ≤ 0

O=C(O)CCCCC(CCSCc1ccccc1)SCc1ccccc1 (configuration not stated)
scaled lipid accumulation score [1]: inactive: ≤ 0 | scaled lipid accumulation score [2]: inactive: ≤ 0

CC(C)NC[C@H](O)COc1cccc2ccccc12 [(S)-Propranolol hydrochloride]
scaled lipid accumulation score [2]: inactive: 0.445

CC(C)NC[C@H](O)COc1cccc2ccccc12 [(S)-propranolol hydrochloride]
scaled lipid accumulation score: inactive: 0.444

CC(C)NC[C@H](O)COc1cccc2ccccc12 [(S)-(-)-Propranolol hydrochloride]
scaled lipid accumulation score [2]: inactive: 0.518

CC(=O)CCCCn1c(=O)c2c(ncn2C)n(C)c1=O [Pentoxifylline]
scaled lipid accumulation score: inactive: ≤ 0 | scaled lipid accumulation score (library stock concentration: 7.2 mM): inactive: 0.018 and inactive: ≤ 0 | scaled lipid accumulation score [2]: inactive: ≤ 0 and inactive: ≤ -0.055 and inactive: ≤ -0.027

Cc1c(NC(=O)OC[C@@H]2COCCN2)cn2ncnc(Nc3ccc4c(cnn4Cc4cccc(F)c4)c3)c12.Cl
scaled lipid accumulation score [1]: active: 1.15 | scaled lipid accumulation score [2]: active: 1.2

CN1C(=O)OC(C)(C)C1=O [Trimethadione]
scaled lipid accumulation score: inactive: ≤ 0 | scaled lipid accumulation score (library stock concentration: 14 mM): inactive: ≤ 0

CN(C/C=C/c1ccccc1)Cc1cccc2ccccc12 [Naftifine hydrochloride]
scaled lipid accumulation score: inactive: ≤ 0

Nc1c(CC(=O)O)cccc1C(=O)c1ccc(Br)cc1 [Bromfenac Sodium]
scaled lipid accumulation score [1]: inactive: ≤ 0 | scaled lipid accumulation score [2]: inactive: 0.121

COc1cccc(Nc2c(C(N)=O)cnc3c(C)cc(S(=O)(=O)c4cccc(C(=O)N(C)C)c4)cc23)c1
scaled lipid accumulation score [1]: inactive: ≤ 0 | scaled lipid accumulation score [2]: inactive: ≤ 0

C[C@]12C=CC(=O)C=C1CC[C@H]1[C@@H]3C[C@@H](O)[C@](O)(C(=O)CO)[C@@]3(C)C[C@H](O)[C@@]12F [Triamcinolone]
scaled lipid accumulation score: inactive: 0.004 | scaled lipid accumulation score [1]: inactive: ≤ 0 | scaled lipid accumulation score (library stock concentration: 5.1 mM): inactive: ≤ 0 | scaled lipid accumulation score [2]: inactive: ≤ 0

CC(C(C)N1CC(=O)NC(=O)C1)N1CC(=O)NC(=O)C1 (configuration not stated)
scaled lipid accumulation score (library stock concentration: 17.7 mM): inactive: ≤ -0.012

CC1(C)O[C@@H]2C[C@H]3[C@@H]4CCC5=CC(=O)CC[C@]5(C)[C@@]4(F)[C@@H](O)C[C@]3(C)[C@]2(C(=O)CCl)O1 [Halcinonide]
scaled lipid accumulation score: inactive: ≤ 0 | scaled lipid accumulation score [1]: inactive: ≤ 0 | scaled lipid accumulation score [2]: inactive: ≤ -0.001 and inactive: 0.225

C[C@@H]1O[C@@H](OC[C@H]2O[C@@H](Oc3c(-c4ccc(OCCO)c(OCCO)c4)oc4cc(OCCO)cc(O)c4c3=O)[C@H](O)[C@@H](O)[C@@H]2O)[C@H](O)[C@H](O)[C@H]1O [Troxerutin]
scaled lipid accumulation score [1]: inactive: ≤ 0 | scaled lipid accumulation score [2]: inactive: 0.014 and inactive: 0.055

CCN(CC)C(=O)/C(C#N)=C/c1cc(O)c(O)c([N+](=O)[O-])c1 [Entacapone]
scaled lipid accumulation score [1]: inactive: ≤ 0 | scaled lipid accumulation score (library stock concentration: 6.6 mM): inactive: 0.018 | scaled lipid accumulation score [2]: inactive: 0.074

CCCCCCCC/C=C\CCCCCCCC(=O)NCCO [Oleylethanolamide]
scaled lipid accumulation score [2]: inactive: 0.119

CCCCCCCC/C=C\CCCCCCCC(=O)NCCO [N-Oleoylethanolamine]
scaled lipid accumulation score [2]: inactive: 0.267

CCCCCCCC/C=C\CCCCCCCC(=O)NCCO [Oleoyl Ethanolamide]
scaled lipid accumulation score [6]: inactive: 0.024

O=C(O)CCNc1cc(N2CCc3ccccc3CC2)nc(-c2cccnc2)n1
scaled lipid accumulation score [3]: inactive: ≤ 0 | scaled lipid accumulation score [4]: inactive: ≤ 0 | scaled lipid accumulation score [5]: inactive: ≤ 0 | scaled lipid accumulation score [2]: inactive: ≤ 0

CC1(C)C(=O)N=C2C1=C(O)C(=O)c1ccccc12
scaled lipid accumulation score [2]: active: 0.923

CC(=O)NCC(=O)N[C@H](CCC(=O)O)C(=O)O [N-Acetylglycyl-D-glutamic acid]
scaled lipid accumulation score [2]: inactive: ≤ 0

C[C@@H](O)[C@H]1C(=O)N2C(C(=O)O)=C(S[C@@H]3CN[C@H](C(=O)N(C)C)C3)[C@H](C)[C@H]12
scaled lipid accumulation score [2]: inactive: ≤ 0

C[C@@H](O)[C@H]1C(=O)N2C(C(=O)O)=C(S[C@@H]3CN[C@H](C(=O)N(C)C)C3)[C@H](C)[C@H]12 [Meropenem]
scaled lipid accumulation score: inactive: ≤ 0 | scaled lipid accumulation score [1]: inactive: 0.065 | scaled lipid accumulation score (library stock concentration: 5.2 mM): inactive: ≤ 0 | scaled lipid accumulation score [2]: inactive: ≤ 0
